# Experimental data published in PubChem BioAssay (Tox21).
# The shares of active, inactive and inconclusive entries below differ from those in the screen. No potency is given beside an inconclusive call; the fits are too rough. Calls of active or inactive are those of the source. Calls come from the whole dose curve; as a rule, active = well fitted cell-killing curve with a large enough effect in the repeat runs; inconclusive = weak or mixed curves, or effect the other way; inactive = flat fitted curve, though single readings scatter.
# Assay: qHTS RealTime-Glo MT Cell Viability Assay in HEK293 cells - 8 hour (AID 1224887); note: nearly all actives have a fitted effect of over 50% in size
# Conditions: RealTime-Glo luminescence; series mostly up to 76.8 µM
# In short: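 HEK293 cells mixed with RealTime-Glo reagents (NanoLuc plus cell-permeant prosubstrate) at 600 cells/well, preincubated 5 h at 37 C/5% CO2, then given 23 nL compound in DMSO. Nonlytic luminescence from viable cells was read at 0, 8, 16, 24, 32 and 40 h.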
# Potency is the fitted concentration of half-maximal effect; tags give direction and shape of the fitted curve.
row,Structure (SMILES),Potency
1,CO[C@@H]1COCC[C@@H]1N[C@@H]1CC[C@@](C(=O)N2CCc3ncc(C(F)(F)F)cc3C2)(C(C)C)C1,active: 15.4 µM
2,Cc1ncc([N+](=O)[O-])n1CC(O)CCl (stereo unspecified),inactive
3,CC(Oc1cc(Cl)ccc1Cl)C(=O)O (stereo unspecified),inactive
4,CC(=O)O[C@H]1CC[C@@]2(C)C(=CC[C@@H]3[C@@H]2CC[C@]2(C)C(C(C)=O)=CC[C@@H]32)C1,inactive
5,CCCCCCCC/C=C\CCCCCCCC(=O)NCc1ccc(O)c(OC)c1,active: 1.51 µM
6,CC(CCC(=O)O)(c1ccc(O)cc1)c1ccc(O)cc1,inactive
7,CCCCOCCOC(=O)CCCCCCCCC(=O)OCCOCCCC,inactive
8,CO[Si](CCCOCC1CO1)(OC)OC (stereo unspecified),inactive
9,NS(=O)(=O)c1cc2c(cc1Cl)NC(C1CC3C=CC1C3)NS2(=O)=O (stereo unspecified),"inconclusive [rising, partial curve, poor fit]"
10,C=C(C)C1CC=C(C)CC1 (stereo unspecified),inactive
11,CC(C)c1ccc(O)c(C(C)C)c1,"inconclusive [cytotoxic, partial curve]"
